Measurements from PMC6919601, “Identification of Plasmodium dipeptidyl aminopeptidase allosteric inhibitors by high throughput screening” (PLoS ONE, 2019).
About 230 (0.21%) of roughly 110,000 compounds showed an effect of 50% or more. The list shows a part of the results.

target: DPAP1 (Plasmodium falciparum, UniProt Q8IIJ9); experiment: primary screen, percent inhibition; read by cleavage of a fluorogenic dipeptide substrate; higher = more effect of the substance; set-up: species or system P. falciparum D10 trophozoite lysates; single well
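Further: 30 min substrate incubation versus DMSO and 10 µM JCP410 controls.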

DPAP1, sequence (Q8IIJ9 whole entry, looked up): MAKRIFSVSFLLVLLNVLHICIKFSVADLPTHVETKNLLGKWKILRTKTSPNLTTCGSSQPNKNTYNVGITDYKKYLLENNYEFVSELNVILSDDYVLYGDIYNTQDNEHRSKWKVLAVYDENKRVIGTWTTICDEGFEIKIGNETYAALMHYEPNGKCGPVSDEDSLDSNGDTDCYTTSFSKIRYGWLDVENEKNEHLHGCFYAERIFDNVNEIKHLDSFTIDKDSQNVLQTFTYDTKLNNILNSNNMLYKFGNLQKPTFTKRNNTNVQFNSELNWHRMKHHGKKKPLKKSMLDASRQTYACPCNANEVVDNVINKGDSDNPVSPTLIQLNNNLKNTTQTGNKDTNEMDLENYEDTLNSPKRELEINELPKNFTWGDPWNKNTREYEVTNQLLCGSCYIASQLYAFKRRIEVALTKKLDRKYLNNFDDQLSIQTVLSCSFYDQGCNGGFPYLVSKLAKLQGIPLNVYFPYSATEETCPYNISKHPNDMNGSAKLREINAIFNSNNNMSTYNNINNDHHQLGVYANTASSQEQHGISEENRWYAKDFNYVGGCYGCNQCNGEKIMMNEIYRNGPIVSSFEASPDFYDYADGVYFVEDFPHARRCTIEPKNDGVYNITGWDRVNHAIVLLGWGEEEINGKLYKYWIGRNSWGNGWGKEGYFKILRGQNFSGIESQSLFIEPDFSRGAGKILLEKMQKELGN

SMILES	% Inhibition @ 10 uM [%]
N=C(NOC(=O)c1ccc(Br)o1)c1cccnc1	3.87
COc1ccc(CCNC(=O)[C@@H]2C[C@H]2c2ccccc2)cc1OC	3.29
Cc1ccc(CSc2nc(O)c3c(n2)NC(=O)CC3c2cccc(O)c2)cc1 (stereo not drawn)	6.89
COc1ccc(-c2csc(/C(C#N)=C\Nc3ccc(C)cc3)n2)cc1	2.01
CCN(CC)c1ccc(C2NC(=O)NC(O)(C(F)(F)F)C2C(=O)c2ccccc2)cc1 (stereo not drawn)	8.18
Cc1nc(NC(=O)c2ccccc2Cl)ccc1Br	-2.67
Cc1cccc(-n2cnc3cc(C(=O)NCCc4ccccc4)ccc32)c1	1.42
CCOc1ccc(Br)cc1C(=O)N1CCCCC1	-3.83
O=c1cc(CSc2nc(O)c3c(n2)CCC3)nc2ccccn12	-2.92
COc1cc2c(cc1OC)C(COc1ccccc1OC)N(C(=O)COc1ccccc1)CC2 (stereo not drawn)	3.83
COc1ccc(NC(=O)C(C)Oc2cccc(C)c2)c(OC)c1 (stereo not drawn)	0.931
CCN(CC)C(=O)CSc1nc(-c2ccco2)cc(C(F)(F)F)c1C#N	0.722
O=C(COc1ccc(Cl)cc1)N(C1CCCCC1)C1CCCCC1	4.54
c1ccc2c(OCCCCN3CCCCC3)cccc2c1	0.135
CC1CCC(NC(=O)c2nnc(Cc3c(F)cccc3Cl)o2)CC1 (stereo not drawn)	3.99
O=C(Cn1ncc2c3ccccc3nc-2c1O)Nc1cc(-c2cccc(F)c2)no1	-4.51
COc1ccc(/C=C/C(=O)NCCCN2CCC(N(C)C3CCCCCC3)CC2)cc1	0.689
Cc1nc2c3ccccc3n3c(CCCC(=O)N4CCOCC4)nnc3n2n1	-10.6
CC1CCCC(NCCN2CCOCC2)C1 (stereo not drawn)	-3.35
COc1nc(N2CCCC2)nc(-n2ccnc2)n1	-6.09
Cc1ccc2c(c1)C(=O)N(CCCCO)C2=O	-1.52
Cc1cc2nc(SCCN3CCCC3)[nH]c2cc1C	3.01
CCN(CC)S(=O)(=O)c1cc(C(=O)O)ccc1Br	2.54
COc1ccccc1-c1nc(S(=O)(=O)c2ccc(C)cc2)c(N2CCOCC2)o1	2.27
CO/C(O)=C1\C(C)=NC2=C(C(=O)CC(c3ccccc3Cl)C2)C1c1cc(OC)c(OC)c(OC)c1 (stereo not drawn)	4.35

SMILES	% Inhibition @ 10 uM [%]
O=C(Nc1ccc(-c2cnc(-c3ccc(NC(=O)C4CC4)cc3)nc2)cc1)C1CC1	0.189
CCSC1=N/C(=C\c2ccc3c(c2)OCO3)C(=O)S1	0.884
Cc1cccc(-n2cc3c(c2-c2ccccc2)c(=O)n(C)c(=O)n3C)c1	-5.85
CC(NC(=O)Cn1sc2ccccc2c1=O)c1ccc2c(c1)OCCO2 (stereo not drawn)	-4.59
C=CCNc1nc(OC(C(F)(F)F)C(F)(F)F)nc(N2CCOCC2)n1	3.34
c1cncc(-c2nc3ccc4ccccc4c3c3c2CCC3)c1	-9.49
OCCN(Cc1ccccc1)Cc1cc(F)ccc1F	1.57
CC(Oc1ccccc1)C(=O)NCc1ccco1 (stereo not drawn)	-3.85
O=C(c1ccccc1)N1CCN(C(=O)c2ccccc2)CC1	-4.24
CN1C(=O)c2ccccc2C(C(=O)NCCCN2CCc3ccccc3C2)C1c1c[nH]c2ccccc12 (stereo not drawn)	-0.668
CCN1C(=O)C(=CNc2ccc(F)cc2)C(=O)N(CC)C1=O	-4.75
CCCOc1ccc(C2CC(=O)Nc3c2ccc2ccccc32)cc1OC (stereo not drawn)	2.17
CN1C(=O)C(C)(C(=O)Nc2ccccc2Cl)c2ccccc21 (stereo not drawn)	-2.32
COc1cccc(OCC(O)CN2CCCC(C)C2)c1 (stereo not drawn)	-1.44
Cc1nnc(N2CCC(C(=O)NCCCOC(C)C)CC2)c2nn(-c3ccccc3)c(C)c12	-2.49
Cc1n[nH]c(C)c1CCc1nc2c3ccccc3nc(NCc3ccccc3Cl)n2n1	0.981
Cc1nn(C(C)C(=O)NC2CCN(Cc3ccccc3)CC2)c(=O)c2c1sc1ccccc12 (stereo not drawn)	-1.33
COc1cc(OC)c2cc(OC)c(OC)cc2n1	-0.478
Cc1cccnc1NC(=O)C(CCS(C)(=O)=O)N1Cc2ccccc2C1=O (stereo not drawn)	-4.38
N#Cc1c(SCC(=O)c2ccccc2)nc2c(c1-c1cccnc1)CCCC2	0.484
Oc1ccc(Nc2nc(N3CCOCC3)c3ccccc3n2)cc1	0.843
CCCCNC(=O)c1nc(C)c(C)nc1C(=O)Nc1ccccc1	5.24
CC(C)(CO)NC(=O)c1cc(-c2ccccc2F)no1	-0.326
O=C1CC(N2CCN(c3ccc(F)cc3)CC2)C(=O)N1c1ccc(Br)cc1 (stereo not drawn)	-2.63
CCCCN(C)CCCNC(=O)Cn1nc(-c2ccccc2)ccc1=O	0.514

SMILES	% Inhibition @ 10 uM [%]
CCCCCC(=O)Nc1nc(-c2ccccc2)c(C)s1	-1.06
CN1CCN(Cc2nnc(S)n2-c2ccccc2Cl)CC1	5.42
C=CCn1cc(/C=C2/SC(=O)N(CC)C2=O)c2ccccc21	-0.795
CCc1nnc(SCC(=O)NCCc2ccc(OC)c(OC)c2)c2cc3sccc3n12	4.92
CCCN1C(=O)c2[nH]nc(-c3ccccc3O)c2C1c1ccc(OCC)cc1 (stereo not drawn)	0.366
CCCN1CCN(CCCNC(=O)Cn2nc(C)n3c(cc4cc(OC)ccc43)c2=O)CC1	3.29
Fc1ccc(N2N=C(/C=C/c3cccs3)CC2c2cccs2)c(F)c1 (stereo not drawn)	-2.6
Cc1nc2ccccc2c(O)c1S(=O)(=O)O	9.08
Cc1ccc(C(C)C)c(Oc2ccc(NC(=O)CCC(=O)O)cc2)c1	2.02
NC1=C(c2nc3ccccc3[nH]2)C(=O)CN1CCc1ccccc1	0.486
O=C(CSc1nnc(C2COc3ccccc3O2)o1)N1CCCC1 (stereo not drawn)	8.14
Cc1nc2c3cccnc3nn2c(C)c1CCC(=O)NCc1ccc2c(c1)OCO2	1.62
Cn1c(C(=O)N2CCC(C(=O)N3CCN(C4CCCCC4)CC3)CC2)cc2sccc21	0.137
O=C1NC(=O)C(=Cc2ccc(-c3ccc([N+](=O)[O-])cc3)o2)C(=O)N1	2.13
CSc1ncc(C(=O)NC(C)c2ccccc2)c(-c2ccccc2)n1 (stereo not drawn)	-3.01
COc1ccc(Cn2nnc3c(O)nc(C(=O)NCCc4ccc(F)cc4)nc32)cc1OC	-1.82
COc1cc2c(C(=O)NCCC3=CCCCC3)cn(CC(C)C)c(=O)c2cc1OC	4.02
CCOc1ccccc1NS(=O)(=O)c1ccc(OC)cc1	-1.37
C=CCOC(=O)C1=C(C)N=C2CC(C)(C)CC(O)=C2C1c1cccc(F)c1 (stereo not drawn)	-1.82
COc1ccc(C)cc1S(=O)(=O)NCC12CC3CC(CC(C3)C1)C2	1.72
COC(=O)c1ccc(C2c3c(oc4ccc(C)cc4c3=O)C(=O)N2c2ccccn2)cc1 (stereo not drawn)	0.415
O=C(/C=C/c1cccc(Cl)c1)NCCCNC1=NS(=O)(=O)c2ccccc21	8.58
Cc1cc(C=O)cc2c3ccccc3n(C)c12	-1.68
COc1ccc(C2(O)C[N+](c3ccccc3)=C3SCCCN32)c(F)c1 (stereo not drawn)	7.33
COc1cccc(C(=O)Nc2ccc(S(=O)(=O)N3CCC(C)CC3)cc2)c1	0.13

SMILES	% Inhibition @ 10 uM [%]
Cc1cc(C)c2nc(N3CCC(C(=O)NC(C)c4ccccc4)CC3)sc2c1 (stereo not drawn)	-3.35
COCCNC(=O)C1CCN(c2nc(-c3ccc(OC)cc3)no2)CC1	-3.1
CCO/C(O)=C1/C(C)=Nc2nc(SCc3cccnc3)nn2C1c1ccccc1C (stereo not drawn)	-6.08
O=C(c1ccccc1F)N1CCN(Cc2ccncc2)CC1	8.6
COc1cc2c(cc1OC)C(COc1ccc3c(C)cc(=O)oc3c1)N(C(=O)C1CC1)CC2 (stereo not drawn)	4.14
CCOC(=O)c1cc(S(=O)(=O)N2CCOCC2)cn1C	-1.06
CC(Cc1cccc(C(F)(F)F)c1)N[C@H]1CC[C@H](O)CC1 (stereo partly drawn)	-1.41
COc1cc(C2CC(C(F)(F)F)n3ncc(C(=O)NC(C)(C)C)c3N2)cc(OC)c1OC (stereo not drawn)	0.0504
Cc1occc1C(=O)Nc1cc(C(F)(F)F)ccc1Cl	1.88
O=C(CSc1c2c(nc3ccccc13)CCCC2)NCc1ccco1	-3.23
Cc1ccccc1C(=O)c1cccn1CC(=O)NCCN1CCN(C)CC1	2.76
CCCN(CCC)C(=O)C1CCN(c2cc(C)nc3c(-c4ccc(OC)c(OC)c4)c(C)nn23)CC1	-3.7
CCOCCCNCc1c(C(=O)O)c(C)n(Cc2ccccc2C)c1C	-0.23
CC(C)Cn1c2c(c(=O)[nH]c1=O)C(NC(=O)c1ccccc1F)(C(F)(F)F)C(=O)N2 (stereo not drawn)	-5.06
COc1cccc(C(=O)NC2(C(F)(F)F)N=C3SCCN3C2=O)c1 (stereo not drawn)	-2.5
NC(=O)c1cc(NC(=O)C(c2ccccc2)c2ccccc2)c(Cl)cc1Cl	12.7
O=C(NCc1ccc(F)cc1)c1nn2c(c1Cl)NC(c1ccco1)CC2C(F)(F)F (stereo not drawn)	-1.22
O=C(Cn1ncn2c(cc3sccc32)c1=O)NC1CCCc2ccccc21 (stereo not drawn)	-7.1
Cc1ccc(-n2c3c(c(O)cc2=O)C(=O)CC(C)(C)C3)cc1	2.36
CCN(c1cccc2ccccc12)S(=O)(=O)c1ccc(Cl)nc1	-0.116
CCCCOn1c(C)c(C(=O)OCC)c2c3nonc3ccc21	-1.52
COc1ccc(/C=C2\N=C(c3ccc(Cl)cc3Cl)OC2=O)c(OC)c1	-4.84
CCOC(=O)c1ccc2nc(NC(=O)CSC3=NC(=O)C(c4ccccc4)C(=O)N3)sc2c1 (stereo not drawn)	22.7
CSc1ccc(CCNC(=O)Cn2ccc3cc(S(=O)(=O)N4CCC(C)CC4)ccc32)cc1	8.75
